# Test results from PubChem BioAssay AID1347073 (National Center for Advancing Translational Sciences (NCATS), 2019).
# About 200 (0.44%) of roughly 45,000 compounds were called active. About 7% were inconclusive and are not listed. Calls follow the shape of the dose curve; as a rule, active = well fitted activation curve with a large enough effect; inconclusive = small, poorly fitted or top-dose-only effect; inactive = no such curve, though single readings can be large or run the other way. Some of the results follow.
# Assay: qHTS of TDP-43 Inhibitors: NCGC Sytravon Library Screen; also: nearly all actives have a fitted effect of over 55% in size; as to growth rescue (activation): 0% is about no effect
# Settings: yeast TDP-43 toxicity rescue, BacTiter-Glo growth, 24 h; series mostly up to 46.1 µM; growth rescue (activation): at the top concentration
# Outline: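 TDP-43-expressing yeast, pregrown in raffinose, seeded at OD600 0.02 in galactose medium with compound for 24 hr at 30 deg C. Growth read by BacTiter-Glo luminescence, so rescue of toxicity appears as activation.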
# Potency is read from the fitted curve at half-maximal effect.
Structure (SMILES),growth rescue (activation),Potency
O=c1[nH]c(C2CCN(S(=O)(=O)c3ccc4c(c3)OCCO4)CC2)nc2c1nnn2Cc1c(F)cccc1Cl,inactive: -8.48%,
Cc1ccc(NC(=O)C2CCCN(c3nnc(-n4c(C)ccc4C)s3)C2)c(C)c1 (stereo not drawn),inactive: -3.69%,
N#Cc1ccccc1Cn1c(=O)n(CCCC(=O)NCc2ccc3c(c2)OCO3)c(=O)c2sccc21,inactive: 0.451%,
O=C(N/N=C/c1ccc([N+](=O)[O-])cc1)c1cccc2cc[nH]c12,inactive: 5.92%,
O=C(Nc1ccc2c(c1)OCO2)c1cc(-c2ccc(O)cc2)on1,inactive: 6.34%,
CC(C)c1onc(C(=O)NCc2ccccn2)c1[N+](=O)[O-],inactive: -12.8%,
Cc1cc(C)c[n+](C[n+]2cc(C)cc(C)c2)c1,inactive: 9.15%,
O=C(NCc1ccco1)c1cc(S(=O)(=O)NC2CC2)ccc1Br,inactive: 9.77%,
CCOC(=O)c1cnc2c(C)c(C)ccc2c1Nc1ccc(S(=O)(=O)Nc2ncccn2)cc1,inactive: 15.7%,
CCN(CC)CCn1c(C)nc2ccccc21,inactive: 5.33%,
CN(C)S(=O)(=O)c1ccc(/C(O)=C2/C(=O)C(=O)N(CCCN3CCOCC3)C2c2ccncc2)cc1 (stereo not drawn),inactive: 11.8%,
O=C(Nc1cc(S(=O)(=O)Nc2ccccc2Cl)ccc1O)c1ccc(F)cc1F,inactive: -1.51%,
CC1(Cc2ccc3c(c2)OCO3)C(=O)Nc2ccc(-c3cccc(C(F)(F)F)c3)cc21 (stereo not drawn),inactive: 1.56%,
COc1ccc(Cl)cc1N(C)C(=O)c1ccc2c(=O)n3c(nc2c1)CCCCC3,inactive: 15.9%,
CCn1c(=O)c(C(=O)NNC(=O)c2ccccc2F)c(O)c2ccccc21,inactive: -43.4%,
COc1ccc(C(O)C(CC(=O)NCCCOC(C)C)C(=O)NCCCOC(C)C)cc1OC (stereo not drawn),inactive: 15.5%,
COc1ccc(N2C(=O)CCC(C(=O)N(C)CCc3ccccn3)C2c2ccc(OC)c(OC)c2)cc1 (stereo not drawn),inactive: 10.3%,
CCCCn1c(N)c(N(CCC(C)C)C(=O)c2ccccc2C)c(=O)[nH]c1=O,inactive: 18.2%,
O=c1c2ccccc2c(C=Nc2ccc(O)cc2)c(O)n1Cc1ccccc1,inactive: 16.4%,
COCCCN1C(=O)/C(=C/c2ccc(CNS(=O)(=O)c3ccccc3)o2)C(C(=O)OC)=C1C,inactive: -10.2%,
Cc1cccc(OCC(=O)Nc2ccccc2C(=O)N2CCOCC2)c1,inactive: -19.8%,
Cc1ccc(NC(=O)CN2C(=O)NC(C)(c3ccc(Cl)cc3)C2=O)cc1S(=O)(=O)N1CCOCC1 (stereo not drawn),inactive: 11.2%,
CCc1ccc(C(=O)NNC(=O)CCC2CCCCC2)cc1,inactive: 33.1%,
COc1cc(/C=C2\SC(=S)N(Nc3ncc(C(F)(F)F)cc3Cl)C2=O)ccc1O,inactive: -6.01%,
O=C(Nc1ccc(S(=O)(=O)NCc2ccco2)cc1)c1ccc2ccccc2n1,inactive: 22.8%,
COc1ccc(NC(=O)CN(C)CC(=O)Nc2cccc3ccccc23)c(OC)c1,inactive: 15.2%,

Structure (SMILES),growth rescue (activation),Potency
CSc1ccc(S(=O)(=O)Nc2ccccc2C(=O)N2CCOCC2)cc1,inactive: 5.56%,
Cc1[nH]c(=S)[nH]c(=O)c1Cc1ccc(OCC(C)C)cc1,inactive: 1.81%,
Cc1nc2ccccc2n(CC(=O)Nc2cc(Cl)cc(Cl)c2)c1=O,inactive: 24.8%,
CSc1ccccc1C(=O)C1CCCN(C(=O)NC(C)C)C1 (stereo not drawn),inactive: 5.35%,
Cc1ccc(NC(=O)COc2ccc(CCO)cc2-n2nc3ccccc3n2)cc1C,inactive: 27.6%,
CCOc1ccc(S(=O)(=O)N2CCC(C(=O)NCc3ccco3)CC2)cc1C,inactive: 19.1%,
CCC(C)OC(=O)C[N+](C)(C)CCOC1CC2CCC1(C)C2(C)C (stereo not drawn),inactive: -4.91%,
O=c1[nH]c2ccccc2n2c(=S)[nH]nc12,inactive: 6.43%,
COc1ccc(C(c2c(O)nc[nH]c2=O)c2c(O)nc[nH]c2=O)cc1,inactive: 18%,
O=C(CSc1nccc(=O)[nH]1)Nc1cc(C(F)(F)F)ccc1N1CCOCC1,inactive: -27.3%,
CN1C(=O)C2(OCC(C)([N+](=O)[O-])CO2)c2ccccc21 (stereo not drawn),inactive: 4.24%,
COc1ccc(CN(Cc2ccc(C(=O)O)cc2)C(=S)Nc2ccc(C)cc2)cc1OC,inactive: 9.56%,
CC1(Cc2ccc(OC(F)(F)F)cc2)C(=O)Nc2ccc(OC(F)(F)F)cc21 (stereo not drawn),inactive: 19%,
O=C(OCC(=O)N1CCN(C(=O)c2ccco2)CC1)c1cc(F)c(F)cc1Cl,inactive: 4.97%,
Cc1cc(NC(=O)CSc2ncnc3sccc23)no1,inactive: 1.98%,
OC(c1cccc(Cl)c1)c1nc(-c2ccc3c(c2)OCO3)cs1 (stereo not drawn),inactive: 9.13%,
O=C(N/N=C/c1ccc2c(c1)OCO2)c1sc2cc(Cl)ccc2c1Cl,inactive: 15.3%,
CCN(CC)S(=O)(=O)c1ccc(/C=C/C(=O)OCC(=O)Nc2cccc3ccccc23)cc1,inactive: 7.52%,
Cc1ccc(N2C(=O)N(CC(=O)Nc3cc(C)cc(C)c3)C(=O)C2C)cc1 (stereo not drawn),inactive: 6.22%,
COc1ccc(NC(=O)c2ccc(C)o2)c([N+](=O)[O-])c1,inactive: -13.8%,
CCCCCc1nnc(NC(=O)NS(=O)(=O)c2ccc(C)cc2)s1,inactive: 3.94%,
Cc1cccnc1C(NC(=O)C1CCN(CCCOc2ccc(F)cc2)CC1)c1ccccc1 (stereo not drawn),inactive: 8.24%,
C=CCNC(=O)CC(C)C(CCCCC)C(=O)O (stereo not drawn),inactive: 14.3%,
CCn1nc(C)c(CN2CCN(Cc3ccsc3)C(CCO)C2)c1C (stereo not drawn),inactive: 7.15%,
CNc1cnc(-c2ccc(C(=O)N3CCOCC3)cc2)cn1,inactive: 5.18%,
COc1ccc(NC(=O)CSc2ccccc2)cn1,inactive: 28.5%,

Structure (SMILES),growth rescue (activation),Potency
COc1ccc(F)cc1Cn1nc(C(=O)O)c2ccccc2c1=O,inactive: 9.39%,
Cc1cc(-c2nc3ccccc3c(=O)o2)ccc1[N+](=O)[O-],inactive: 1.77%,
COCc1cc(C)nc(SCC(=O)Nc2ccc(N3CCOCC3)cc2)c1C#N,inactive: 5.88%,
O=C(Cc1ccccc1C(=O)O)Nc1cccc2ccccc12,inactive: 12.3%,
Cc1ccc(S(=O)(=O)N2CCC[C@H]2C(=O)Nc2ccccc2Cl)cc1,inactive: 23.9%,
CCC(OC(=O)c1ccco1)C(=O)NCc1ccc(OC)cc1 (stereo not drawn),inactive: 5.01%,
COc1ccc(CN(Cc2ccc(C(=O)O)cc2)C(=S)Nc2ccccc2F)cc1OC,inactive: -2.26%,
COc1ccccc1NS(=O)(=O)c1cccc(NC(=O)c2cncc(Br)c2)c1,inactive: -19.6%,
O=C(NNC(=O)c1ccccc1-c1ccccc1C(=O)O)c1ccccc1,inactive: 3.79%,
COC(=O)c1cc2c(ccn2-c2ccc(F)cc2)n1CC(=O)OC(C)C,inactive: 17.2%,
CC1Cc2ccccc2N1C(=O)COC(=O)c1ccc([N+](=O)[O-])o1 (stereo not drawn),inactive: 37.2%,
O=C1CS/C(=N\N=C\c2ccco2)N1c1ccccc1,inactive: -7.72%,
CC(NC(=O)COC(=O)c1cc(S(=O)(=O)N2CCOCC2)ccc1F)c1ccccc1 (stereo not drawn),inactive: 8.45%,
O=[N+]([O-])c1cc(S(=O)(=O)Nc2cccc(Cl)c2)ccc1N=Nc1c(O)[nH]c2ccccc12,inactive: 4.46%,
O=C(NCc1cccnc1)c1ccc(CS(=O)(=O)c2ccc(Cl)cc2)o1,inactive: -5.7%,
Cc1cccc(NS(=O)(=O)c2cccc3nonc23)c1,inactive: 27%,
CCCc1nc2sc3c(c2c(=O)n1NC(=O)CCC(=O)OC)CCCC3,inactive: 12.3%,
CC1(C(=O)Nc2ccccc2)Cc2c(-c3cccc(C(N)=O)c3)ccnc2O1 (stereo not drawn),inactive: -4.26%,
O=C1c2ccccc2C(=O)N1OCc1c(F)cccc1Cl,inactive: -17.8%,
O=C(CSc1ccc([N+](=O)[O-])cc1)Nc1cccc(S(=O)(=O)Nc2ccccc2F)c1,inactive: -6.21%,
COc1cc(OC)cc(C(=O)N[C@H](C(=O)Nc2cc(F)ccc2C)C(C)C)c1,inactive: 0.644%,
CCOC(=O)c1sc(C)c2c(=O)n(Cc3ccc(Cl)cc3)cnc12,inactive: 1.62%,
CC1CCCN(CCCN2C(=O)C3C(C(=O)Nc4cccc(Cl)c4)C4C=CC3(O4)C2C(=O)NC2CCCCC2)C1 (stereo not drawn),inactive: 12.1%,
Cc1ccccc1-c1nc(CN2CCCC2c2ccc(F)cc2)c(C)o1 (stereo not drawn),inactive: 2.27%,
COC(=O)c1ccc(NC(=S)NC2CC(C)(C)NC(C)(C)C2)cc1,inactive: 20.4%,
COC(=O)c1c(N2C(=O)CC(Sc3ccccc3C(=O)O)C2=O)sc2c1CCCC2 (stereo not drawn),inactive: 9.74%,

Structure (SMILES),growth rescue (activation),Potency
Cc1cc(C)nc(N/N=C/C2=C(N3CCOCC3)C(=C\c3ccc(Cl)cc3)/CC2)n1,inactive: 13%,
CCOc1ccc2c(=O)c(-c3ccc4c(c3)OCCCO4)c(C)oc2c1,inactive: -1.61%,
CCn1ncc(Br)c1C(=O)Nc1cc(C(=O)OC)ccc1C(=O)OC,inactive: 17.3%,
Cc1nc(-c2ccccc2)ccc1C(=O)O,inactive: 3.2%,
Cc1cc(NS(=O)(=O)c2ccc(NC(=O)C(C)Oc3ccccc3Cl)cc2)no1 (stereo not drawn),inactive: 20.8%,
COc1ccc(-c2nnc(SCC(=O)N3CCCC3)o2)cc1,inactive: 22.6%,
Cc1occc1C(=O)N/N=C/c1ccc(Cl)c([N+](=O)[O-])c1,inactive: 4.78%,
Cc1ccc2c(c1)N(CC(=O)Nc1nccs1)C(=O)CO2,inactive: 25.6%,
Cn1c(CCC(=O)O)nc2cc(S(=O)(=O)N3CCCC3)ccc21,inactive: -5.3%,
Cc1nc2c(OCc3ccc(F)cc3)cccn2c1N(C)C(=O)CCC1CCCC1,inactive: 2.61%,
CCOC(=O)N1CCN(C(=O)CNC(=O)c2nn(-c3ccc(OC)cc3OC)c(=O)c3ccccc23)CC1,inactive: -3.37%,
COC(=O)c1cc2sc(C)cc2n1Cc1ccc(F)cc1Cl,inactive: 8.39%,
S=C(NCCc1cnc[nH]1)NC1CCCC1,inactive: 5.15%,
CC1CCCCC12NC(=O)N(CC(=O)NCc1ccccc1)C2=O (stereo not drawn),inactive: 1.06%,
Nn1c(SCc2cccc(Oc3ccccc3)c2)nnc1C(F)(F)F,,active: 12.6 µM
O=C(CN1CCN(c2ccc(O)cc2)CC1)Nc1ccc(-c2ccccc2)cc1,inactive: 1.17%,
Cc1ccc(-n2nnnc2SC(C(=O)c2c[nH]c3ccccc23)c2ccccc2)cc1 (stereo not drawn),inactive: -22.3%,
CCCC(NC(=O)CCl)c1ccccc1 (stereo not drawn),inactive: 10.6%,
CCOC(=O)c1c(C(=O)OCC)c(C)n(Cc2cc(OC)c(OC)c(OC)c2)c1C,inactive: 2.26%,
C=CCN1C(=O)/C(=C\C(C)=C\c2ccccc2)SC1=S,inactive: -8.98%,
COC(=O)c1sc(N2C(=O)c3oc4ccccc4c(=O)c3C2c2cccc(O)c2)nc1C (stereo not drawn),inactive: 14.7%,
Cc1cc2oc(C(=O)NCCc3ccc(S(N)(=O)=O)cc3)c(C)c2cc1C,inactive: -4.38%,
CCCn1c(N)c(C(=O)CSc2nnc(C)n2Cc2ccccc2)c(=O)n(C)c1=O,inactive: 10%,
CCCNC(=O)C1CC(=O)N(c2ccc(OCC)cc2)C1 (stereo not drawn),inactive: -6.35%,
CNc1cnc(-c2ccc(O)c(OC)c2)cn1,inactive: 7.24%,
